Test results taken from PubChem BioAssay AID624417 (National Center for Advancing Translational Sciences (NCATS), 2012).
“And” between values parts separate entries of the source, which are not always exact repeats. Identical values can stand only once. Screen size: about 410,000 compounds; about 6,400 (1.6%) were called active. Inconclusive means that the source gave no clear call. Such entries were picked first, then a sample of the others. The call rests on the fitted dose curve; in most records, active means well fitted inhibition curve with a large enough effect; inconclusive means small, poorly fitted or top-dose-only effect; inactive means no such curve, though single readings can be large or run the other way. Where the call is inconclusive, the potency comes from a doubtful curve fit.

molecular target: Glucagon-like peptide 1 receptor (Homo sapiens) (UniProt P43220); test: qHTS of GLP-1 Receptor Inverse Agonists (Inhibition Mode); details: HEK293 GLP-1R CRE-luciferase, luminescence, 24 h, GLP-1R form is constitutively active; series mostly up to 38.3 µM; further: nearly all actives have a fitted effect of over 55% in size
Outline: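 HEK293 cells stably co-expressing a cAMP-responsive luciferase reporter and constitutively active GLP-1R were seeded, incubated 12 h, then exposed to compounds for 24 h at 37 C. Luminescence was read 12 min after detection reagent; inverse agonists lower signal.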
Potency means the concentration at half of the fitted maximal effect; tags describe the fitted curve by direction and shape.

Sequence of UniProt P43220 (P43220 whole entry, looked up): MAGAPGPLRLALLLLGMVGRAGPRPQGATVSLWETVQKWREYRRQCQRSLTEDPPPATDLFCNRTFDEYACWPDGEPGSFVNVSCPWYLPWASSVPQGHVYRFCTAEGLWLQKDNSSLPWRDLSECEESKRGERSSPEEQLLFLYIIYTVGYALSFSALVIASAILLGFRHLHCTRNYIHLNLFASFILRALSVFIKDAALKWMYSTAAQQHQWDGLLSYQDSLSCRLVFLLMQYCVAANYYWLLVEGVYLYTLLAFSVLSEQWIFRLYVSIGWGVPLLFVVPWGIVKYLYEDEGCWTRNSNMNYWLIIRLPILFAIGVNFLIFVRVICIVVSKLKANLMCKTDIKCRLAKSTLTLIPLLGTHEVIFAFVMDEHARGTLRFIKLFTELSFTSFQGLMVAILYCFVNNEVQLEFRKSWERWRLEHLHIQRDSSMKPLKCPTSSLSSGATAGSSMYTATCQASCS

| SMILES | Potency |
| --- | --- |
| O=C(NCc1ccco1)c1ccc(Cn2c(SCc3ccccc3)nc3cccnc32)cc1 | inactive |
| Cc1cccc(NC(=O)COC(=O)CN2CCCCCC2=O)c1C | inactive |
| C#Cc1cccc(Nc2nc(NCc3ccccc3)nc3ccsc23)c1 | inconclusive: 25.1 µM [inhibitor, single point] |
| COc1ccc(NCc2cccn2-c2nnc(N3CCCCCC3)s2)cc1 | inconclusive: 12.6 µM [inhibitor, partial curve, poor fit] |
| COC(=O)c1scc(C)c1S(=O)(=O)Nc1ccc(C)cc1 | inconclusive: 31.6 µM [inhibitor, single point] |
| O=C1c2ccccc2N2C(=O)c3ccccc3C2N1Cc1ccccc1 (stereo unspecified) | inconclusive: 12.6 µM [inhibitor, partial curve, poor fit] |
| O=C1CC(N2CCN(c3ccc(F)cc3)CC2)C(=O)N1Cc1ccc(N2CCCC2=O)cc1 (stereo unspecified) | inconclusive: 28.2 µM [inhibitor, single point] |
| CC(CNC(=O)CCn1ccc2cc(S(=O)(=O)N3CCCC3)ccc21)c1ccccc1 (stereo unspecified) | inconclusive: 28.2 µM [inhibitor, single point] |
| COc1ccc(/C=N/NC(=S)Nc2ccccc2[N+](=O)[O-])cc1O | inconclusive: 10 µM [inhibitor, partial curve, poor fit] |
| Cc1ccc(CN2CCC(CO)(CC3CCCCO3)CC2)o1 (stereo unspecified) | inactive |
| CCOC(=O)C1(CCCc2ccccc2)CCN(C(=O)CCN2CCCCC2=O)CC1 | inconclusive: 10 µM [inhibitor, partial curve] |
| CC(C)(C)NC(=O)Nc1ccc(Br)cc1 | inconclusive: 28.2 µM [inhibitor, single point] |
| CC(=O)c1ccc(NC(=O)C2CCN(c3nnc(C)c4c(C)n(-c5ccccc5)nc34)CC2)cc1 | inactive |
| Cc1ccnc(NC(=O)c2ccccc2NC(=O)c2ccc(Cl)cc2Cl)c1 | inconclusive: 8.91 µM [inhibitor, partial curve, poor fit] |
| Cc1ccc(NS(=O)(=O)c2cccc(C(=O)NNC(=O)NC3CCCCC3)c2)c(C)c1 | inconclusive: 22.4 µM [inhibitor, single point] |
| CCN(CCCNC(=O)CN(C)S(=O)(=O)c1cccc2nsnc12)c1cccc(C)c1 | inconclusive: 1.78 µM [inhibitor, partial curve, poor fit] |
| Cc1ccc(-c2cc(C(=O)N3CCN(S(=O)(=O)c4ccc(Br)cc4)CC3)[nH]n2)c(C)c1 | inactive |
| CCCCOc1ccc(NC(=O)CSc2cccc3cccnc23)cc1 | active: 2.82 µM |
| CN(C)CCNC(=O)Cn1ccc2cc(S(=O)(=O)N3CCCCCC3)ccc21 | inconclusive: 20 µM [inhibitor, single point] |
| CC(=O)Nc1ccc(-c2csc(NC(=O)Cc3ccccc3F)n2)cc1 | inconclusive: 15.8 µM [inhibitor, single point] |
| CCOc1ccccc1NC(=O)CCc1c(C)nn(-c2ccc(N3CCCCC3)nn2)c1C | inconclusive: 28.2 µM [inhibitor, single point] and inconclusive: 15.8 µM [inhibitor, single point] |

| SMILES | Potency |
| --- | --- |
| Cc1cc(Cl)ccc1OCC(=O)N(Cc1ccco1)Cc1ccccc1F | active: 11.2 µM |
| COC(=O)[C@H]1C[C@@H]1[C@H](NS(=O)(=O)c1ccc2ccccc2c1)c1ccccc1 | inconclusive: 28.2 µM [inhibitor, partial curve, poor fit] |
| CCOc1cccc(-c2c(C(=O)N/N=C/c3ccc(C)o3)nnn2-c2nonc2N)c1 | inconclusive: 11.2 µM [inhibitor, partial curve, poor fit] |
| CCOc1ncccc1C(=O)N1CCN(C(c2ccccc2)c2ccccc2)CC1 | inconclusive: 22.4 µM [inhibitor, single point] |
| O=C(Oc1ccc(Br)cc1C(=S)N1CCCCC1)c1cc([N+](=O)[O-])cc([N+](=O)[O-])c1 | inconclusive: 12.6 µM [inhibitor, single point] |
| Cc1noc(C)c1S(=O)(=O)N1CCCC(C(=O)c2cccc(OC(C)C)c2)C1 (stereo unspecified) | inconclusive: 10 µM [inhibitor, single point] |
| CC1CCc2[nH]c3ccc(C(=O)N(C)CC(=O)Nc4ccccc4Cl)cc3c2C1 (stereo unspecified) | inconclusive: 28.2 µM [inhibitor, single point] |
| CCCN(C(=O)c1ccco1)c1nnc(-c2cccc(C)c2)s1 | inconclusive: 20 µM [inhibitor, single point] |
| Cc1cccc(N(CC(=O)Nc2ccccc2C(F)(F)F)S(=O)(=O)c2ccccc2)c1C | active: 11.2 µM |
| COc1ccc(CNC(=S)NC2CCCC2)cc1 | inconclusive: 12.6 µM [inhibitor, single point] |
| Cn1ccnc1SCC(=O)c1ccc2ccccc2c1 | inactive |
| COc1ccc(-c2csc(NC(=O)CSCc3c(C)noc3C)n2)c(OC)c1 | inconclusive: 20 µM [inhibitor, single point] |
| CC1(C)CC2CC(C)(CN2S(=O)(=O)c2cccc(C(N)=O)c2)C1 (stereo unspecified) | inactive |
| Nc1c(C(=O)CSc2nnnn2-c2ccccc2)c(=O)[nH]c(=O)n1C1CC1 | inactive |
| Cc1ccc(/C=C/C(=O)c2ccc(O)cc2)cc1 | inconclusive: 28.2 µM [inhibitor, single point] |
| Cc1ccccc1S(=O)(=O)/N=C(/Nc1nc2ccccc2s1)c1ccccc1 | inconclusive: 22.4 µM [inhibitor, single point] |
| CC(O)(c1cccnc1)c1nc(-c2cc(F)cc(F)c2)cs1 (stereo unspecified) | inconclusive: 20 µM [inhibitor, single point] |
| COc1ccc(Cl)cc1NC(=O)c1cn(C2CCCC2)c(=O)c2c1c1ccccc1n2C | inconclusive: 11.2 µM [inhibitor, single point] |
| COc1ccc(C(C)NCCC(c2ccc(OC(C)C)cc2)c2ccccc2OC)cc1 (stereo unspecified) | inconclusive: 6.31 µM [inhibitor, partial curve, poor fit] |
| CCC(=O)N1CCCc2cc(S(=O)(=O)N3CCC(C(=O)NCc4ccc(F)cc4)CC3)ccc21 | inactive |
| COc1ccc(OC(C)C(=O)N(C)Cc2nc(-c3cccc(C)c3)no2)cc1 (stereo unspecified) | inconclusive: 10 µM [inhibitor, single point] |

| SMILES | Potency |
| --- | --- |
| CCOC(=O)c1c(C)[nH]c(C)c1C(=O)COC(=O)/C=C/c1ccc(OC(F)F)cc1 | inconclusive: 11.2 µM [inhibitor, single point] |
| O=S(=O)(Nc1ccc(NS(=O)(=O)c2ccccc2)c2ccccc12)c1ccccc1 | inconclusive: 10 µM [inhibitor, single point] |
| CC(=O)c1cccc(NC(=O)c2ccc(N(C)S(=O)(=O)c3ccc(C)cc3)cc2)c1 | inconclusive: 11.2 µM [inhibitor, partial curve, poor fit] |
| COc1ccc(Cl)cc1NC(=S)N1CCN(c2ccccn2)CC1 | inconclusive: 8.91 µM [inhibitor, partial curve] |
| CCOC(=O)c1[nH]c(C=O)c(C(=O)OCC)c1C | inconclusive: 2.82 µM [inhibitor, partial curve, poor fit] |
| CC(C)(C)CC(=O)NCCc1csc(-c2ccccc2)n1 | inconclusive: 17.8 µM [inhibitor, partial curve, poor fit] |
| CCc1ccc(NC(=O)CCC(=O)c2ccc(C)cc2)cc1 | inconclusive: 8.91 µM [inhibitor, partial curve, poor fit] |
| OCCNCc1cc(Br)ccc1OCc1ccc(Cl)cc1 | inconclusive: 14.1 µM [inhibitor, single point] |
| CSc1n[nH]c(N)c1S(=O)(=O)c1ccc(Cl)cc1 | inconclusive: 10 µM [inhibitor, single point] |
| CCOc1ccc(NC(=O)Cn2cnc3sc(C)c(S(=O)(=O)N4CCN(c5ccccc5OC)CC4)c3c2=O)cc1 | inconclusive: 11.2 µM [inhibitor, single point] |
| COc1ccc(NC(=O)c2ccco2)cc1NC(=O)C(C)(C)Oc1ccc(Cl)cc1 | inconclusive: 28.2 µM [inhibitor, partial curve, poor fit] |
| O=S1(=O)CCO[C@H]2Cc3ccccc3[C@H]2N1Cc1ccccc1Br | inconclusive: 28.2 µM [inhibitor, single point] |
| Cc1ccc(C(NC(=O)c2ccccc2)C(Cl)Cl)cc1 (stereo unspecified) | inconclusive: 12.6 µM [inhibitor, partial curve, poor fit] |
| CC(C)(C)NC(=O)C(c1ccc(-c2ccccc2)cc1)N(C[C@H]1CC[C@@H]([C@@H]2CC[C@H](CO)O2)O1)C(=O)c1ccc2ccccc2c1 (stereo partly specified) | inconclusive: 22.4 µM [inhibitor, single point] |
| CN(CC(=O)Nc1ccccc1C(F)(F)F)C(=O)CSCc1ccccc1 | inconclusive: 8.91 µM [inhibitor, partial curve, poor fit] |
| C/C(CC(=O)Nc1cc(C)ccn1)=N\NC(=O)c1ccc(C(C)(C)C)cc1 | inactive |
| CNc1ccc(Br)cc(C(=O)/C=C/c2cccc(OC)c2)c1=O | inconclusive: 15.8 µM [inhibitor, single point] |
| COc1cccc(NC(=O)CN(C)C(=O)CN2C(=O)NC(C)(c3ccc4ccccc4c3)C2=O)c1 (stereo unspecified) | inconclusive: 28.2 µM [inhibitor, single point] |
| O=C(CN(c1ccccc1)S(=O)(=O)c1ccccc1)N1CCN(Cc2ccc3c(c2)OCO3)CC1 | inconclusive: 10 µM [inhibitor, partial curve, poor fit] |
